Measurements reported in publication PMC9513894.
These are yes or no findings as the source states them, for the method shown. In cells and extracts the contact can be indirect. Some binding calls cover weakened binding; strength is not graded here. Sequences can lack the tags named with a protein.

The chains behind the UniProt entries cited, without tags or fusion partners.
UniProt P35222: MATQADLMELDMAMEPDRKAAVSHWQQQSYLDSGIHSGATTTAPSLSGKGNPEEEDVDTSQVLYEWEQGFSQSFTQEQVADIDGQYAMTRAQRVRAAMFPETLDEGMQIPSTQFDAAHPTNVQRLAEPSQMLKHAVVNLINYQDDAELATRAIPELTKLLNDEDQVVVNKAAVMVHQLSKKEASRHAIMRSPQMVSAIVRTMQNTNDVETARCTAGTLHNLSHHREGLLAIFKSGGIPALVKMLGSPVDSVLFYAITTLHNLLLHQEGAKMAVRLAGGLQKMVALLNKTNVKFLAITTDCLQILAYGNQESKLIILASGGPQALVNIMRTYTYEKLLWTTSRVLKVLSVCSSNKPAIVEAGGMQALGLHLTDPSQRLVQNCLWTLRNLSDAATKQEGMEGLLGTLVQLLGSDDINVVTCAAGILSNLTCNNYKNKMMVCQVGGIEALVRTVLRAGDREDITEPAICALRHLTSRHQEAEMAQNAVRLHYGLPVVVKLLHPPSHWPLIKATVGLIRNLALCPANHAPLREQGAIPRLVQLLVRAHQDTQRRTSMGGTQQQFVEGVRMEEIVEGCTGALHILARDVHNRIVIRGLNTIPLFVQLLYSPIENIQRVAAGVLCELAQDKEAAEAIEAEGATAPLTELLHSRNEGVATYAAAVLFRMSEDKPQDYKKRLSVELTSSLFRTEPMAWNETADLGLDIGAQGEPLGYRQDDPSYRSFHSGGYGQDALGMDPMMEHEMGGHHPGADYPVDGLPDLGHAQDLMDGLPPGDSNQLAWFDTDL

B1: HDAC7 (detected in the anti-Flag precipitate of Flag-β-catenin) (enzyme, UniProt Q8WUI4 1-952)
chain: MDLRVGQRPPVEPPPEPTLLALQRPQRLHHHLFLAGLQQQRSVEPMRLSMDTPMPELQVGPQEQELRQLLHKDKSKRSAVASSVVKQKLAEVILKKQQAALERTVHPNSPGIPYRTLEPLETEGATRSMLSSFLPPVPSLPSDPPEHFPLRKTVSEPNLKLRYKPKKSLERRKNPLLRKESAPPSLRRRPAETLGDSSPSSSSTPASGCSSPNDSEHGPNPILGSEALLGQRLRLQETSVAPFALPTVSLLPAITLGLPAPARADSDRRTHPTLGPRGPILGSPHTPLFLPHGLEPEAGGTLPSRLQPILLLDPSGSHAPLLTVPGLGPLPFHFAQSLMTTERLSGSGLHWPLSRTRSEPLPPSATAPPPPGPMQPRLEQLKTHVQVIKRSAKPSEKPRLRQIPSAEDLETDGGGPGQVVDDGLEHRELGHGQPEARGPAPLQQHPQVLLWEQQRLAGRLPRGSTGDTVLLPLAQGGHRPLSRAQSSPAAPASLSAPEPASQARVLSSSETPARTLPFTTGLIYDSVMLKHQCSCGDNSRHPEHAGRIQSIWSRLQERGLRSQCECLRGRKASLEELQSVHSERHVLLYGTNPLSRLKLDNGKLAGLLAQRMFVMLPCGGVGVDTDTIWNELHSSNAARWAAGSVTDLAFKVASRELKNGFAVVRPPGHHADHSTAMGFCFFNSVAIACRQLQQQSKASKILIVDWDVHHGNGTQQTFYQDPSVLYISLHRHDDGNFFPGSGAVDEVGAGSGEGFNVNVAWAGGLDPPMGDPEYLAAFRIVVMPIAREFSPDLVLVSAGFDAAEGHPAPLGGYHVSAKCFGYMTQQLMNLAGGAVVLALEGGHDLTAICDASEACVAALLGNRVDPLSEEGWKQKPNLNAIRSLEAVIRVHSKYWGCMQRLASCPDSWVPRVPGADKEEVEAVTALASLSVGILAEDRPSEQLVEEEEPMNL

How the values were obtained:
[1] = target: T1, Flag-HDAC7 (histone deacetylase 7) (UniProt Q8WUI4); assay: co-IP; Flag-HDAC7 or Flag-β-catenin precipitated with anti-Flag agarose from whole cell lysates of EC109 and HEK-293T cells (8 μg per 1 mg lysate, 4 °C, 4 h; washed 4 times with NETN buffer); partner detected by Western blotting
T1 sequence: B1 chain

Flag-β-catenin = Flag-β-catenin (UniProt P35222); assay: as above

| binding [1] | binding (Flag-β-catenin) | Molecule |
| --- | --- | --- |
| binds |  | β-catenin (detected in the anti-Flag precipitate of Flag-HDAC7) (from UniProt P35222 1-781) |
|  | binds | B1 |
